Data taken from PubChem BioAssay (NCI).
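Compound exposure: 48 hours, 5 concentrations, 96-well plates. GI50 = concentration required for 50% inhibition of growth.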 Certain results were filed several times, with different values. This list holds those alone. An entry can have further records. For part of these data: A record mostly stands for its own series of concentrations, not given here; some values may only mark the edge of a range. A tag in brackets gives the origin of a value. Letters count within one entry. For part of these data: Results that share an entry are repeated measurements across runs, samples, wells, individuals or studies.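 TGI denotes the concentration required for complete inhibition of growth.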

Experiments:
Test in all cases: NCI-60 cell line screen, 48 h
[1] = system: MDA-MB-435
[2] = system: CCRF-CEM leukemia
[3] = system: HCC-2998 colon
[4] = system: SN12C renal
[5] = system: SW-620 colon
[6] = system: HCT-15 colon
[7] = system: ACHN renal
[8] = system: SK-OV-3 ovarian
[9] = system: SK-MEL-5 melanoma
[10] = system: RXF 393 renal
[11] = system: SK-MEL-2 melanoma
[12] = system: K-562 leukemia
[13] = system: BT-549 breast
[14] = system: IGROV1 ovarian
[15] = system: NCI/ADR-RES ovarian
[16] = system: TK-10 renal
[17] = system: UACC-62 melanoma
[18] = system: PC-3 prostate
[19] = system: KM12 colon
[20] = system: SNB-19 CNS
[21] = system: HT29 colon
[22] = system: MDA-MB-231 breast
[23] = system: M14 melanoma
[24] = system: HOP-92 NSCLC
[25] = system: SK-MEL-28 melanoma
[26] = system: RPMI-8226 leukemia
[27] = system: SF-295 CNS

With `Cc1nc(Nc2ncc(C(=O)Nc3c(C)cccc3Cl)s2)cc(N2CCN(CCO)CC2)n1` the TGI [1] was 20 µM [sample A, 1 test] and 18.7 µM [sample A, mean of 5 tests] and 23.6 µM [sample B, mean of 2 tests] and > 10 µM [sample C, mean of 2 tests], the GI50 [2] was 7.33 µM [sample A, 1 test] and 5.29 µM [sample A, mean of 5 tests] and 5.85 µM [sample B, mean of 2 tests] and > 7.25 µM [sample C, mean of 2 tests] and the TGI [2] was 20 µM [sample A, 1 test] and 52.5 µM [sample A, mean of 5 tests] and 47.5 µM [sample B, mean of 2 tests] and > 10 µM [sample C, mean of 2 tests]. The GI50 [3] was 13 µM [sample A, 1 test] and 11.8 µM [sample A, mean of 5 tests] and 12.5 µM [sample B, mean of 2 tests] and > 10 µM [sample C, mean of 2 tests], the TGI [3] was 20 µM [sample A, 1 test] and 27 µM [sample A, mean of 5 tests] and 26.5 µM [sample B, mean of 2 tests] and > 10 µM [sample C, mean of 2 tests] and the GI50 [4] was 28.5 nM [sample A, 1 test] and 55 nM [sample A, mean of 5 tests] and 15.1 nM [sample B, mean of 2 tests] and 12.8 nM [sample C, mean of 2 tests]. For the same molecule, the TGI [4] was 20 µM [sample A, 1 test] and 14.1 µM [sample A, mean of 5 tests] and 48.6 µM [sample B, mean of 2 tests] and > 10 µM [sample C, mean of 2 tests], the GI50 [5] was 8.44 µM [sample A, 1 test] and 9.39 µM [sample A, mean of 5 tests] and 13.3 µM [sample B, mean of 2 tests] and > 10 µM [sample C, mean of 2 tests] and the TGI [5] was 20 µM [sample A, 1 test] and 24.9 µM [sample A, mean of 5 tests] and 34.6 µM [sample B, mean of 2 tests] and > 10 µM [sample C, mean of 2 tests]. For the same molecule, the TGI [6] was 20 µM [sample A, 1 test] and 18 µM [sample A, mean of 5 tests] and 36.5 µM [sample B, mean of 2 tests] and > 10 µM [sample C, mean of 2 tests], the GI50 [7] was 18.4 nM [sample A, 1 test] and 12.2 nM [sample A, mean of 5 tests] and 24.5 nM [sample B, mean of 2 tests] and 7.41 nM [sample C, mean of 2 tests] and the TGI [7] was 20 µM [sample A, 1 test] and 353 nM [sample A, mean of 5 tests] and 15.5 µM [sample B, mean of 2 tests] and 214 nM [sample C, mean of 2 tests]. For the same molecule, the GI50 [8] was 224 nM [sample A, 1 test] and 38.3 nM [sample A, mean of 5 tests] and 204 nM [sample B, mean of 2 tests] and 77 nM [sample C, mean of 2 tests], the TGI [8] was 3.34 µM [sample A, 1 test] and 2.24 µM [sample A, mean of 5 tests] and 7.62 µM [sample B, mean of 2 tests] and 3.75 µM [sample C, mean of 2 tests] and the GI50 [9] was 6.75 µM [sample A, 1 test] and 4.53 µM [sample A, mean of 5 tests] and 10.8 µM [sample B, mean of 2 tests] and > 10 µM [sample C, mean of 2 tests]. The TGI [9] was 20 µM [sample A, 1 test] and 18.2 µM [sample A, mean of 5 tests] and 23 µM [sample B, mean of 2 tests] and > 10 µM [sample C, mean of 2 tests], the GI50 [10] was 9.03 nM [sample A, 1 test] and 29.7 nM [sample A, mean of 3 tests] and < 10.5 nM [sample B, mean of 2 tests] and 2.92 nM [sample C, mean of 2 tests] and the TGI [10] was 96.9 nM [sample A, 1 test] and 1.1 µM [sample A, mean of 3 tests] and 76.7 nM [sample B, mean of 2 tests] and 24.6 nM [sample C, mean of 2 tests]. For the same molecule, the GI50 [11] was 7.77 µM [sample A, 1 test] and 1.13 µM [sample A, mean of 5 tests] and 13.5 µM [sample B, 1 test] and > 10 µM [sample C, mean of 2 tests], the TGI [11] was 20 µM [sample A, 1 test] and 19.9 µM [sample A, mean of 5 tests] and 36.6 µM [sample B, 1 test] and > 10 µM [sample C, mean of 2 tests] and the TGI [12] was 20 µM [sample A, 1 test] and > 63 µM [sample A, mean of 4 tests] and > 100 µM [sample B, 1 test] and > 10 µM [sample C, mean of 2 tests]. For the same molecule, the GI50 [13] was 7.65 µM [sample A, 1 test] and 5.96 µM [sample A, mean of 4 tests] and 4.39 µM [sample B, 1 test] and > 6.36 µM [sample C, mean of 2 tests], the TGI [13] was 20 µM [sample A, 1 test] and 21.2 µM [sample A, mean of 4 tests] and 17.2 µM [sample B, 1 test] and > 10 µM [sample C, mean of 2 tests] and the GI50 [14] was 25.2 nM [sample A, 1 test] and 10 nM [sample A, mean of 4 tests] and < 12.1 nM [sample B, mean of 2 tests] and 4.14 nM [sample C, 1 test]. For the same molecule, the TGI [14] was 20 µM [sample A, 1 test] and 390 nM [sample A, mean of 4 tests] and 330 nM [sample B, mean of 2 tests] and 141 nM [sample C, 1 test], the TGI [15] was 20 µM [sample A, 1 test] and 40.7 µM [sample A, mean of 5 tests] and 45.4 µM [sample B, mean of 2 tests] and > 10 µM [sample C, mean of 2 tests] and the TGI [16] was 72.5 nM [sample A, 1 test] and 34.7 nM [sample A, mean of 5 tests] and 156 nM [sample B, mean of 2 tests] and 109 nM [sample C, mean of 2 tests]. The TGI [17] was 20 µM [sample A, 1 test] and 17.1 µM [sample A, mean of 5 tests] and 18.3 µM [sample B, mean of 2 tests] and > 10 µM [sample C, mean of 2 tests], the GI50 [18] was 2.26 µM [sample A, 1 test] and 184 nM [sample A, mean of 5 tests] and 107 nM [sample B, mean of 2 tests] and 6.81 µM [sample C, mean of 2 tests] and the TGI [18] was 20 µM [sample A, 1 test] and 35 µM [sample A, mean of 5 tests] and 58.4 µM [sample B, mean of 2 tests] and > 10 µM [sample C, mean of 2 tests]. For the same molecule, the TGI [19] was 20 µM [sample A, 1 test] and 25.4 µM [sample A, mean of 5 tests] and 26.7 µM [sample B, mean of 2 tests] and > 10 µM [sample C, mean of 2 tests], the TGI [20] was 20 µM [sample A, 1 test] and 37.8 µM [sample A, mean of 5 tests] and > 90 µM [sample B, mean of 2 tests] and > 10 µM [sample C, mean of 2 tests] and the TGI [21] was 41.2 µM [sample A, mean of 3 tests] and 1.14 µM [sample B, mean of 2 tests] and > 10 µM [sample C, mean of 2 tests]. The TGI [22] was 3.8 µM [sample A, 1 test] and 3.37 µM [sample A, mean of 5 tests] and 21.7 µM [sample B, mean of 2 tests] and 3.04 µM [sample C, mean of 2 tests], the TGI [23] was 20 µM [sample A, 1 test] and 14.8 µM [sample A, mean of 5 tests] and 13.5 µM [sample B, mean of 2 tests] and > 10 µM [sample C, mean of 2 tests] and the GI50 [24] was 75.2 nM [sample A, mean of 3 tests] and < 10 nM [sample B, 1 test] and 1.56 nM [sample C, 1 test]. The TGI [24] was 49.7 µM [sample A, mean of 3 tests] and 20.5 nM [sample B, 1 test] and 37.9 nM [sample C, 1 test], the GI50 [25] was 9.17 µM [sample A, 1 test] and 6.23 µM [sample A, mean of 5 tests] and 7.35 µM [sample B, mean of 2 tests] and > 6.78 µM [sample C, mean of 2 tests] and the GI50 [26] was 7.38 µM [sample A, 1 test] and 4.86 µM [sample A, mean of 5 tests] and 13.6 µM [sample B, mean of 2 tests] and > 10 µM [sample C, mean of 2 tests]. For the same molecule, the TGI [26] was 20 µM [sample A, 1 test] and 36.6 µM [sample A, mean of 5 tests] and 45.5 µM [sample B, mean of 2 tests] and > 10 µM [sample C, mean of 2 tests], the GI50 [27] was 3.32 µM [sample A, 1 test] and 1.05 µM [sample A, mean of 5 tests] and 3.96 µM [sample B, mean of 2 tests] and 257 nM [sample C, mean of 2 tests] and the TGI [27] was 16.5 µM [sample A, 1 test] and 10.7 µM [sample A, mean of 5 tests] and 33 µM [sample B, mean of 2 tests] and > 10 µM [sample C, mean of 2 tests].
